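Test compounds were applied to cells in 96-well plates for 48 hours at 5 doses. GI50 = concentration required for 50% inhibition of growth.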 Some entries of the source have several records that differ or are many. This is not the full list of results. There may be further records. The tests behind the records often covered other concentration ranges, which the source does not state; some values may only mark the edge of a range.
Test system: MDA-MB-468 breast
Assay: DTP human tumour cell line panel, 48 h

O=NN(CCCl)C(=O)NCCCl
GI50: > 500 µM [1 test] and 46.8 µM [mean of 2 tests]

Reference: PubChem BioAssay (NCI)
